Measured values published in PMC9173704, “Relationships Between Plasminogen-Binding M-Protein and Surface Enolase for Human Plasminogen Acquisition and Activation in Streptococcus pyogenes” (Frontiers in Microbiology, 2022).

Target: the molecule itself
Test: SEC-MALS; each protein 100 μl of 1 mg/ml on a WTC-030S5 column, PBS, pH 7.4, flow rate 0.5 ml/min

B1: recombinant human enolase (hEno) (enzyme)
chain: not shown
notes: human enolase (heno gene, NCBI NM_001428.5) amplified from human liver cDNA, nt 1 to nt 1308 of the reading frame, called full-length; Dimer by SEC-MALS and AUC
stoichiometry N: 2
